Laboratory results from PubChem BioAssay AID184 (DTP/NCI, 2004).
Inconclusive results and toxic doses are left out. Not every entry of the source has a single result; some have several. The list is limited to them. The source may hold further records. Values that stand side by side repeat one measurement across runs, samples, wells, individuals or studies.

System: BALB/cJ mice, ADJ-PC-6 ip tumor, median survival T/C
Assay: NCI In Vivo Anticancer Drug Screen. Data for tumor model ADJ-PC-6 (intraperitoneal) in BALB/cJ mice
Settings: endpoint: median survival time; dose: 0.25 mg/kg/injection; schedule: Q01DX009 (ip); vehicle: alkali diluted with saline; higher = longer survival
Description: The antitumor activity of compounds was measured in mice bearing transplantable tumors. Survival or tumor size were measured and the results are expressed as the measurement made in the treated group (T) divided by the measurement made in the vehicle treated control group (C). The tumor model used in this assay is ADJ-PC-6 (intraperitoneal) in BALB/cJ mice

`Nc1nc(=S)c2[nH]cnc2[nH]1` was tested, and the T/C was 116 % of control and 171 % of control.
